Cytotoxicity call data for 29 molecules are collected here from the antibiotic and cytotoxicity screens of Wong et al. (2023).

This is one part of the list.

The test system of the assay is HepG2. Kind of assay: cytotoxicity call (relative viability < 0.9). The conditions noted are these: 10 µM.
In the case of `CCOc1cc(CC(=O)NC(CC(C)C)c2ccccc2N2CCCCC2)ccc1C(=O)O` (centres undefined), the cytotoxicity call is “inactive”.
Then `C[C@H]1CCCCO[C@@H](CN(C)S(=O)(=O)c2ccccc2)[C@@H](C)CN([C@@H](C)CO)C(=O)c2cc(NC(=O)CCC(F)(F)F)ccc2O1`, with “inactive”.
Then `CCC(=O)Nc1ccc2c(c1)C(=O)N(C)C[C@@H](OC)[C@H](C)CN(Cc1ccc(-c3ccccn3)cc1)[C@H](C)CO2`, with “inactive”; and `CCC(=C(CC)c1ccc(O)cc1)c1ccc(O)cc1`, with “active”; and `C[C@H](CO)N1C[C@H](C)[C@H](CN(C)CC2CCCCC2)Oc2ccc(NC(=O)Nc3ccc(F)cc3)cc2C1=O`, with “inactive”.
For `C[C@H]1CN([C@@H](C)CO)S(=O)(=O)c2ccc(C#CC3(O)CCCC3)cc2O[C@@H]1CN(C)C(=O)Nc1cccc(F)c1` the value was “inactive”.
Turning to `CN1CCN(C(=O)C[C@@H]2CC[C@@H](NC(=O)c3ccc4c(c3)OCO4)[C@H](CO)O2)CC1`, the cytotoxicity call is “inactive”.
For `C[C@@H]1CCCCO[C@@H](CN(C)C(=O)Nc2ccc(F)cc2)[C@H](C)CN([C@H](C)CO)C(=O)c2cc(NC(=O)CCCN(C)C)ccc2O1` the value was “inactive”.
Then `C[C@@H]1CN([C@@H](C)CO)C(=O)c2cc(NS(=O)(=O)c3cccs3)ccc2O[C@@H](C)CCCCO[C@@H]1CN(C)Cc1ccc(C(F)(F)F)cc1`, with “inactive”; and `C[C@@H]1CN([C@@H](C)CO)C(=O)c2cc(C#Cc3cccc(F)c3)cnc2O[C@@H]1CN(C)C(=O)C1CCOCC1`, with “inactive”; and `C[C@H]1CN([C@@H](C)CO)C(=O)Cc2cc(NC(=O)Nc3ccc(C(F)(F)F)cc3)ccc2O[C@H]1CN(C)Cc1ccc(Cl)c(Cl)c1`, with “active”.
For `Cc1noc(C)c1NC(=O)Nc1ccc2c(c1)CC(=O)N([C@H](C)CO)C[C@H](C)[C@H](CN(C)C(=O)NC(C)C)O2` the value was “inactive”.
On to `COc1ccc(NC(=O)Nc2ccc3c(c2)C(=O)N([C@@H](C)CO)C[C@@H](C)[C@H](CN(C)C(=O)NC2CCCCC2)OCCCC[C@@H](C)O3)cc1`, for which the cytotoxicity call is “inactive”.
Then `Cc1nc(N=Nc2cc(S(=O)(=O)O)c3cc([N+](=O)[O-])cc(S(=O)(=O)O)c3c2)c(COP(=O)(O)O)c(C=O)c1O`, with “inactive”; and `O=C1O[C@@H](c2ccccc2)[C@@H](c2ccccc2)N2[C@@H](c3ccccc3OCCO)[C@]3(C(=O)Nc4ccc(C#CC5(O)CCCCCC5)cc43)[C@@H](C(=O)O)[C@H]12`, with “inactive”.
Then `Cc1ccc(S(=O)(=O)N(C)C[C@@H]2Oc3ncc(C#CCC(C)C)cc3C(=O)N([C@H](C)CO)C[C@H]2C)cc1`, with “inactive”; and `O=C(C[C@@H]1C=C[C@H](NC(=O)C2CCC2)[C@@H](CO)O1)NCCCN1CCOCC1`, with “inactive”.
For the molecule `[N-]=[N+]=N[C@]1(CO)O[C@@H](n2ccc(N)nc2=O)[C@@H](O)[C@@H]1O`, the cytotoxicity call is “inactive”.
For the molecule `Cc1noc(C)c1S(=O)(=O)N(C)C[C@@H]1Oc2ccc(NC(=O)C3CCCCC3)cc2CC(=O)N([C@@H](C)CO)C[C@H]1C`, the cytotoxicity call is “inactive”.
For the molecule `C[C@H]1O[C@@H](O[C@H]2[C@@H](O)C[C@H](O[C@H]3[C@@H](O)C[C@H](O[C@H]4CC[C@@]5(C)[C@H](CC[C@@H]6[C@@H]5C[C@@H](O)[C@]5(C)[C@@H](C7=CC(=O)OC7)CC[C@]65O)C4)O[C@@H]3C)O[C@@H]2C)C[C@H](O)[C@@H]1O`, the cytotoxicity call was “active”.
For `O=C(C[C@@H]1C[C@@H]2c3cc(NC(=O)c4ccc5c(c4)OCO5)ccc3O[C@@H]2[C@H](CO)O1)NCc1cccnc1` the value was “inactive”; for `C[C@@H]1CCCCO[C@H](CN(C)S(=O)(=O)c2ccc(F)cc2)[C@@H](C)CN([C@@H](C)CO)C(=O)c2cc(NS(=O)(=O)c3ccc(Cl)cc3)ccc2O1`, “inactive”; for `CC1C(=O)OC2CC34C5CC(C(C)(C)C)C36C(OC(=O)C6O)OC4(C(=O)O5)C21O` (centres undefined), “inactive”.
On to `COc1cccc(C#Cc2ccc3c(c2)O[C@@H](CN(C)S(=O)(=O)c2ccccc2F)[C@H](C)CN([C@H](C)CO)S3(=O)=O)c1`, for which the cytotoxicity call was “inactive”.
For `C[C@H](CO)N1C[C@H](C)[C@H](CN(C)C(=O)Nc2cccc3ccccc23)OCCCC[C@H](C)Oc2ccc(NS(=O)(=O)c3cn(C)cn3)cc2C1=O` the value was “inactive”; for `O=C1CO[C@@H](c2ccccc2)CN1`, “inactive”; for `COc1ccc(S(=O)(=O)Nc2ccc3c(c2)CC(=O)N([C@H](C)CO)C[C@@H](C)[C@H](CN(C)CC2CC2)O3)cc1`, “inactive”.
For `CC(C)C#Cc1ccc2c(c1)O[C@@H](CN(C)S(=O)(=O)c1cn(C)cn1)[C@H](C)CN([C@@H](C)CO)S2(=O)=O` the value was “inactive”; for `COc1ccc(C#Cc2ccc([C@H]3[C@H](CO)N4CCCCN(S(=O)(=O)c5cn(C)cn5)C[C@@H]34)cc2)cc1`, “inactive”.
